Measured values published in the supplement of paper PMC8728848.
The other results are listed elsewhere or left out.

Legend:
Experiment in all cases: glycan array binding signal (z-score within array); higher = stronger binding
Details in all cases: glycan notation: IUPAC condensed, linker removed
Kdn(a2-3)Gal(b1-3)GlcNAc = target: Kdn(a2-3)Gal(b1-3)GlcNAc
Summary of the method: (§1)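 Arrays were curated from the Consortium for Functional Glycomics database, 3228 in total, and kept only where the protein sequence was available. Binding is expressed as a within-array Z-score. This score was averaged across arrays of the same protein sequence at different concentrations or buffers and across linkers, and negative values can be read as non-binding.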

Kdn(a2-3)Gal(b1-4)Glc = target: Kdn(a2-3)Gal(b1-4)Glc
Summary of the method: as §1

Kdn(a2-3)Gal(b1-4)GlcNAc = target: Kdn(a2-3)Gal(b1-4)GlcNAc
Summary of the method: as §1

[1] = target: Kdn(a2-3)Gal(b1-4)[Fuc(a1-3)]GlcNAc
Summary of the method: as §1

Kdn(a2-6)Gal(b1-4)GlcNAc = target: Kdn(a2-6)Gal(b1-4)GlcNAc
Summary of the method: as §1

[2] = target: Man(a1-2)Man(a1-2)Man(a1-3)Man
Summary of the method: as §1

[3] = target: Man(a1-2)Man(a1-2)Man(a1-6)[Man(a1-3)]Man
Summary of the method: as §1

Man(a1-2)Man(a1-3)Man = target: Man(a1-2)Man(a1-3)Man
Summary of the method: as §1

[4] = target: Man(a1-2)Man(a1-3)[Man(a1-2)Man(a1-6)]Man
Summary of the method: as §1

[5] = target: Man(a1-2)Man(a1-3)[Man(a1-2)Man(a1-6)]Man(a1-6)[Man(a1-2)Man(a1-2)Man(a1-3)]Man
Summary of the method: as §1

[6] = target: Man(a1-2)Man(a1-3)[Man(a1-2)Man(a1-6)]Man(a1-6)[Man(a1-2)Man(a1-2)Man(a1-3)]Man(b1-4)GlcNAc(b1-4)GlcNAc
Summary of the method: as §1

[7] = target: Man(a1-2)Man(a1-3)[Man(a1-6)]Man(a1-6)[Man(a1-2)Man(a1-3)]Man(b1-4)GlcNAc(b1-4)GlcNAc
Summary of the method: as §1

[8] = target: Man(a1-2)Man(a1-6)[Man(a1-3)]Man(a1-6)[Man(a1-2)Man(a1-2)Man(a1-3)]Man
Summary of the method: as §1

[9] = target: Man(a1-2)Man(a1-6)[Man(a1-3)]Man(a1-6)[Man(a1-2)Man(a1-2)Man(a1-3)]Man(b1-4)GlcNAc(b1-4)GlcNAc
Summary of the method: as §1

Man(a1-3)[Man(a1-6)]Man = target: Man(a1-3)[Man(a1-6)]Man
Summary of the method: as §1

[10] = target: Man(a1-3)[Man(a1-6)]Man(a1-6)[Man(a1-2)Man(a1-3)]Man(b1-4)GlcNAc(b1-4)GlcNAc
Summary of the method: as §1

[11] = target: Man(a1-3)[Man(a1-6)]Man(a1-6)[Man(a1-3)]Man
Summary of the method: as §1

[12] = target: Man(a1-3)[Man(a1-6)]Man(a1-6)[Man(a1-3)]Man(b1-4)GlcNAc(b1-4)GlcNAc
Summary of the method: as §1

[13] = target: Man(a1-3)[Man(a1-6)]Man(b1-4)GlcNAc(b1-4)GlcNAc
Summary of the method: as §1

[14] = target: Man(a1-3)[Man(a1-6)]Man(b1-4)GlcNAc(b1-4)[Fuc(a1-6)]GlcNAc
Summary of the method: as §1

Man(a1-6)Man = target: Man(a1-6)Man
Summary of the method: as §1

Man(b1-4)GlcNAc = target: Man(b1-4)GlcNAc
Summary of the method: as §1

MurNAc(b1-4)GlcNAc = target: MurNAc(b1-4)GlcNAc
Summary of the method: as §1

Neu5Ac(a2-3)Gal = target: Neu5Ac(a2-3)Gal
Summary of the method: as §1

[15] = target: Neu5Ac(a2-3)Gal(b1-3)GalNAc
Summary of the method: as §1

[16] = target: Neu5Ac(a2-3)Gal(b1-3)GalNAc(b1-3)Gal(a1-4)Gal(b1-4)Glc
Summary of the method: as §1

[17] = target: Neu5Ac(a2-3)Gal(b1-3)GalNAc(b1-4)Gal(b1-4)Glc
Summary of the method: as §1

[18] = target: Neu5Ac(a2-3)Gal(b1-3)GalNAc(b1-4)[Neu5Ac(a2-3)]Gal(b1-4)Glc
Summary of the method: as §1

[19] = target: Neu5Ac(a2-3)Gal(b1-3)GalNAc(b1-4)[Neu5Ac(a2-8)Neu5Ac(a2-3)]Gal(b1-4)Glc
Summary of the method: as §1

[20] = target: Neu5Ac(a2-3)Gal(b1-3)GalNAc6S
Summary of the method: as §1

[21] = target: Neu5Ac(a2-3)Gal(b1-3)GlcNAc
Summary of the method: as §1

[22] = target: Neu5Ac(a2-3)Gal(b1-3)GlcNAc(b1-2)Man
Summary of the method: as §1

[23] = target: Neu5Ac(a2-3)Gal(b1-3)GlcNAc(b1-2)Man(a1-3)[GlcNAc(b1-4)][Neu5Ac(a2-3)Gal(b1-3)GlcNAc(b1-2)Man(a1-6)]Man(b1-4)GlcNAc(b1-4)GlcNAc
Summary of the method: as §1

[24] = target: Neu5Ac(a2-3)Gal(b1-3)GlcNAc(b1-2)Man(a1-3)[Neu5Ac(a2-3)Gal(b1-3)GlcNAc(b1-2)Man(a1-6)]Man(b1-4)GlcNAc(b1-4)GlcNAc
Summary of the method: as §1

[25] = target: Neu5Ac(a2-3)Gal(b1-3)GlcNAc(b1-2)[Neu5Ac(a2-3)Gal(b1-3)GlcNAc(b1-4)]Man(a1-6)[Neu5Ac(a2-3)Gal(b1-3)GlcNAc(b1-2)Man(a1-3)]Man(b1-4)GlcNAc(b1-4)GlcNAc
Summary of the method: as §1

[26] = target: Neu5Ac(a2-3)Gal(b1-3)GlcNAc(b1-3)Gal(b1-3)GlcNAc
Summary of the method: as §1

[27] = target: Neu5Ac(a2-3)Gal(b1-3)GlcNAc(b1-3)Gal(b1-4)GlcNAc
Summary of the method: as §1

[28] = target: Neu5Ac(a2-3)Gal(b1-3)GlcNAc(b1-3)GalNAc
Summary of the method: as §1

B1: Siglec-9 (Homo sapiens), Q9Y336 (protein)
chain: MLLLLLPLLWGRERAEGQTSKLLTMQSSVTVQEGLCVHVPCSFSYPSHGWIYPGPVVHGYWFREGANTDQDAPVATNNPARAVWEETRDRFHLLGDPHTKNCTLSIRDARRSDAGRYFFRMEKGSIKWNYKHHRLSVNVTALTHRPNILIPGTLESGCPQNLTCSVPWACEQGTPPMISWIGTSVSPLDPSTTRSSVLTLIPQPQDHGTSLTCQVTFPGASVTTNKTVHLNVSYPPQNLTMTVFQGDGTVSTVLGNGSSLSLPEGQSLRLVCAVDAVDSNPPARLSLSWRGLTLCPSQPSNPGVLELPWVHLRDAAEFTCRAQNPLGSQQVYLNVSLQSKATSGVTQGVVGGAGATALVFLSFCVIFVVVRSCRKKSARPAAGVGDTGIEDANAVRGSASQGPLTEPWAEDSPPDQPPPASARSSVGEGELQYASLSFQMVKPWDSRGQEATDTEYSEIKIHR
**Q.** Which results are given for B1?
**A.** glycan array binding signal (z-score) (Kdn(a2-3)Gal(b1-3)GlcNAc): -0.163; glycan array binding signal (z-score) (Kdn(a2-3)Gal(b1-4)Glc): -0.058; glycan array binding signal (z-score) (Kdn(a2-3)Gal(b1-4)GlcNAc): -0.136; glycan array binding signal (z-score) [1]: -0.31; glycan array binding signal (z-score) (Kdn(a2-6)Gal(b1-4)GlcNAc): -0.147; glycan array binding signal (z-score) [2]: -0.078; glycan array binding signal (z-score) [3]: -0.263; glycan array binding signal (z-score) (Man(a1-2)Man(a1-3)Man): -0.256; glycan array binding signal (z-score) [4]: -0.182; glycan array binding signal (z-score) [5]: -0.055; glycan array binding signal (z-score) [6]: -0.286; glycan array binding signal (z-score) [7]: -0.451; glycan array binding signal (z-score) [8]: -0.135; glycan array binding signal (z-score) [9]: 0.09; glycan array binding signal (z-score) (Man(a1-3)[Man(a1-6)]Man): -0.144; glycan array binding signal (z-score) [10]: -0.158; glycan array binding signal (z-score) [11]: -0.224; glycan array binding signal (z-score) [12]: -0.007; glycan array binding signal (z-score) [13]: -0.235; glycan array binding signal (z-score) [14]: -0.082; glycan array binding signal (z-score) (Man(a1-6)Man): -0.173; glycan array binding signal (z-score) (Man(b1-4)GlcNAc): -0.223; glycan array binding signal (z-score) (MurNAc(b1-4)GlcNAc): -0.143; glycan array binding signal (z-score) (Neu5Ac(a2-3)Gal): 0.007; glycan array binding signal (z-score) [15]: 0.648; glycan array binding signal (z-score) [16]: -0.249; glycan array binding signal (z-score) [17]: -0.072; glycan array binding signal (z-score) [18]: 0.198; glycan array binding signal (z-score) [19]: -0.218; glycan array binding signal (z-score) [20]: 1.05; glycan array binding signal (z-score) [21]: 0.087; glycan array binding signal (z-score) [22]: 0.308; glycan array binding signal (z-score) [23]: 0.178; glycan array binding signal (z-score) [24]: -0.061; glycan array binding signal (z-score) [25]: -0.076; glycan array binding signal (z-score) [26]: -0.277; glycan array binding signal (z-score) [27]: -0.097; glycan array binding signal (z-score) [28]: -0.049
